Laboratory results taken from paper PMC12820563, “FoxP3 forms a head-to-head dimer in vivo and stabilizes its multimerization on adjacent microsatellites”.
Some of the results follow.

These sequences were tested against T1, MBP-FoxP1dN (Mus musculus, UniProt P58462 326-579) (assay: PD-seq (MBP pull-down with sequencing); 20 mM Tris-HCl pH 7.5, 100 mM NaCl, 1.5 mM MgCl2, 0.4 uM protein, 0.1 uM dsDNA library, 30 min, room temperature, amylose pull-down; high values mean tight binding). Conditions: protein: recombinant; tags: His6-MBP; chain copies: 2; dsDNA, one strand shown.
T1 sequence: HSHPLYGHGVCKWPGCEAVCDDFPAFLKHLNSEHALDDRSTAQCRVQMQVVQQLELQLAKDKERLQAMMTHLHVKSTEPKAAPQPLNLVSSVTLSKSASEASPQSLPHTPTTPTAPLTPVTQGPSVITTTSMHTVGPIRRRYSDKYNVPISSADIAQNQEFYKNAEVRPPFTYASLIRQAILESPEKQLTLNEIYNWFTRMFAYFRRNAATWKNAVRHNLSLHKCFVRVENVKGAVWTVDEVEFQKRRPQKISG
Outline: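 A degenerate double-stranded DNA library, filled in with Klenow, was added at 0.1 µM to 0.4 µM His6-MBP-tagged mouse FoxP3 or FoxP1 fragment lacking the N-terminus, expressed in E. coli. Incubation lasted 30 min at room temperature in Tris pH 7.5 buffer with NaCl and MgCl2, after which complexes were collected on amylose resin, washed three times, digested with proteinase K to free the DNA, barcoded by PCR and sequenced by Illumina. Binding is the pooled-replicate reads-per-million enrichment of pull-down over input.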
For “GATGATTGTTCTCCCAGCTGATGAATTACTGTAGTCGAGTAAACAAATTTTCCTAATCTTTCTGTTCAAGCGCCATCTAC”, the binding signal was 1.18 RPM ratio (pull-down/input). In the case of “GATGATTGTTCTCCCAGCTGATGAATTATATCCCTCGAGTAAACAAATTTTCCTAATCTTTCTGTTCAAGCGCCATCTAC”, the binding signal is reported as 0.962 RPM ratio (pull-down/input). With “GATGATTGTTCTCCCAGCTGATGAATTCTACTTTTCGAGTAAACAAATTTTCCTAATCTTTCTGTTCAAGCGCCATCTAC” the binding signal was 0.956 RPM ratio (pull-down/input). With “GATGATTGTTCTCCCAGCTGATGAATTGACAAGGTCGAGTAAACAAATTTTCCTAATCTTTCTGTTCAAGCGCCATCTAC” the binding signal was 1.01 RPM ratio (pull-down/input). In the case of “GATGATTGTTCTCCCAGCTGATGAATTCTCCGAATCGAGTAAACAAATTTTCCTAATCTTTCTGTTCAAGCGCCATCTAC”, the binding signal is reported as 0.942 RPM ratio (pull-down/input). In the case of “GATGATTGTTCTCCCAGCTGATGAATTATTAGATTCGAGTAAACAAATTTTCCTAATCTTTCTGTTCAAGCGCCATCTAC”, the binding signal is reported as 1.08 RPM ratio (pull-down/input). In the case of “GATGATTGTTCTCCCAGCTGATGAATTATAAACTTCGAGTAAACAAATTTTCCTAATCTTTCTGTTCAAGCGCCATCTAC”, the binding signal is reported as 1.11 RPM ratio (pull-down/input). In the case of “GATGATTGTTCTCCCAGCTGATGAATTCGTCCCTTCGAGTAAACAAATTTTCCTAATCTTTCTGTTCAAGCGCCATCTAC”, the binding signal is reported as 0.82 RPM ratio (pull-down/input). “GATGATTGTTCTCCCAGCTGATGAATTCGTAAAGTCGAGTAAACAAATTTTCCTAATCTTTCTGTTCAAGCGCCATCTAC” was tested, and the binding signal was 0.923 RPM ratio (pull-down/input). In the case of “GATGATTGTTCTCCCAGCTGATGAATTGGCTGTCTCGAGTAAACAAATTTTCCTAATCTTTCTGTTCAAGCGCCATCTAC”, the binding signal is reported as 0.789 RPM ratio (pull-down/input). With “GATGATTGTTCTCCCAGCTGATGAATTTCCTTCCTCGAGTAAACAAATTTTCCTAATCTTTCTGTTCAAGCGCCATCTAC” the binding signal was 0.802 RPM ratio (pull-down/input). In the case of “GATGATTGTTCTCCCAGCTGATGAATTTAGTTAATCGAGTAAACAAATTTTCCTAATCTTTCTGTTCAAGCGCCATCTAC”, the binding signal is reported as 1.03 RPM ratio (pull-down/input). “GATGATTGTTCTCCCAGCTGATGAATTATAGGTGTCGAGTAAACAAATTTTCCTAATCTTTCTGTTCAAGCGCCATCTAC” was tested, and the binding signal was 0.94 RPM ratio (pull-down/input). With “GATGATTGTTCTCCCAGCTGATGAATTACCTCGGTCGAGTAAACAAATTTTCCTAATCTTTCTGTTCAAGCGCCATCTAC” the binding signal was 0.889 RPM ratio (pull-down/input). With “GATGATTGTTCTCCCAGCTGATGAATTCTTCCCATCGAGTAAACAAATTTTCCTAATCTTTCTGTTCAAGCGCCATCTAC” the binding signal was 0.852 RPM ratio (pull-down/input). In the case of “GATGATTGTTCTCCCAGCTGATGAATTCTTTAAATCGAGTAAACAAATTTTCCTAATCTTTCTGTTCAAGCGCCATCTAC”, the binding signal is reported as 0.933 RPM ratio (pull-down/input). With “GATGATTGTTCTCCCAGCTGATGAATTTCGAGCTTCGAGTAAACAAATTTTCCTAATCTTTCTGTTCAAGCGCCATCTAC” the binding signal was 0.792 RPM ratio (pull-down/input). “GATGATTGTTCTCCCAGCTGATGAATTTCCTGGTTCGAGTAAACAAATTTTCCTAATCTTTCTGTTCAAGCGCCATCTAC” was tested, and the binding signal was 0.781 RPM ratio (pull-down/input). With “GATGATTGTTCTCCCAGCTGATGAATTACCGCTGTCGAGTAAACAAATTTTCCTAATCTTTCTGTTCAAGCGCCATCTAC” the binding signal was 0.991 RPM ratio (pull-down/input). For “GATGATTGTTCTCCCAGCTGATGAATTGAAAGGCTCGAGTAAACAAATTTTCCTAATCTTTCTGTTCAAGCGCCATCTAC”, the binding signal was 0.86 RPM ratio (pull-down/input). For “GATGATTGTTCTCCCAGCTGATGAATTACATACTTCGAGTAAACAAATTTTCCTAATCTTTCTGTTCAAGCGCCATCTAC”, the binding signal was 1.2 RPM ratio (pull-down/input). With “GATGATTGTTCTCCCAGCTGATGAATTAGGCCGATCGAGTAAACAAATTTTCCTAATCTTTCTGTTCAAGCGCCATCTAC” the binding signal was 0.874 RPM ratio (pull-down/input). With “GATGATTGTTCTCCCAGCTGATGAATTGGAACGGTCGAGTAAACAAATTTTCCTAATCTTTCTGTTCAAGCGCCATCTAC” the binding signal was 0.837 RPM ratio (pull-down/input). “GATGATTGTTCTCCCAGCTGATGAATTCTCGAGCTCGAGTAAACAAATTTTCCTAATCTTTCTGTTCAAGCGCCATCTAC” was tested, and the binding signal was 0.719 RPM ratio (pull-down/input). With “GATGATTGTTCTCCCAGCTGATGAATTGACTACGTCGAGTAAACAAATTTTCCTAATCTTTCTGTTCAAGCGCCATCTAC” the binding signal was 1.04 RPM ratio (pull-down/input). “GATGATTGTTCTCCCAGCTGATGAATTTACGGAGTCGAGTAAACAAATTTTCCTAATCTTTCTGTTCAAGCGCCATCTAC” was tested, and the binding signal was 1.01 RPM ratio (pull-down/input). “GATGATTGTTCTCCCAGCTGATGAATTCACTACCTCGAGTAAACAAATTTTCCTAATCTTTCTGTTCAAGCGCCATCTAC” was tested, and the binding signal was 0.869 RPM ratio (pull-down/input). In the case of “GATGATTGTTCTCCCAGCTGATGAATTGGGGGATTCGAGTAAACAAATTTTCCTAATCTTTCTGTTCAAGCGCCATCTAC”, the binding signal is reported as 0.811 RPM ratio (pull-down/input). In the case of “GATGATTGTTCTCCCAGCTGATGAATTCAAACCCTCGAGTAAACAAATTTTCCTAATCTTTCTGTTCAAGCGCCATCTAC”, the binding signal is reported as 0.816 RPM ratio (pull-down/input). With “GATGATTGTTCTCCCAGCTGATGAATTATCAGGTTCGAGTAAACAAATTTTCCTAATCTTTCTGTTCAAGCGCCATCTAC” the binding signal was 0.891 RPM ratio (pull-down/input). For “GATGATTGTTCTCCCAGCTGATGAATTCTGTAGATCGAGTAAACAAATTTTCCTAATCTTTCTGTTCAAGCGCCATCTAC”, the binding signal was 0.926 RPM ratio (pull-down/input). “GATGATTGTTCTCCCAGCTGATGAATTTTGATTGTCGAGTAAACAAATTTTCCTAATCTTTCTGTTCAAGCGCCATCTAC” was tested, and the binding signal was 1.67 RPM ratio (pull-down/input). With “GATGATTGTTCTCCCAGCTGATGAATTACCTACATCGAGTAAACAAATTTTCCTAATCTTTCTGTTCAAGCGCCATCTAC” the binding signal was 1.16 RPM ratio (pull-down/input). In the case of “GATGATTGTTCTCCCAGCTGATGAATTTAAACGGTCGAGTAAACAAATTTTCCTAATCTTTCTGTTCAAGCGCCATCTAC”, the binding signal is reported as 0.843 RPM ratio (pull-down/input). “GATGATTGTTCTCCCAGCTGATGAATTGTAGCGGTCGAGTAAACAAATTTTCCTAATCTTTCTGTTCAAGCGCCATCTAC” was tested, and the binding signal was 0.912 RPM ratio (pull-down/input). “GATGATTGTTCTCCCAGCTGATGAATTGCGTTGATCGAGTAAACAAATTTTCCTAATCTTTCTGTTCAAGCGCCATCTAC” was tested, and the binding signal was 1.1 RPM ratio (pull-down/input). For “GATGATTGTTCTCCCAGCTGATGAATTTTTAATGTCGAGTAAACAAATTTTCCTAATCTTTCTGTTCAAGCGCCATCTAC”, the binding signal was 1.27 RPM ratio (pull-down/input). In the case of “GATGATTGTTCTCCCAGCTGATGAATTCGACTGTTCGAGTAAACAAATTTTCCTAATCTTTCTGTTCAAGCGCCATCTAC”, the binding signal is reported as 0.839 RPM ratio (pull-down/input). In the case of “GATGATTGTTCTCCCAGCTGATGAATTTACAAAGTCGAGTAAACAAATTTTCCTAATCTTTCTGTTCAAGCGCCATCTAC”, the binding signal is reported as 1.43 RPM ratio (pull-down/input). “GATGATTGTTCTCCCAGCTGATGAATTCATAGTGTCGAGTAAACAAATTTTCCTAATCTTTCTGTTCAAGCGCCATCTAC” was tested, and the binding signal was 0.982 RPM ratio (pull-down/input).
